In the supplement of paper PMC3334620:
In all, about 33,000 sequences were measured (“E-score (-0.5 to 0.5)”: median about -0.043, highest 2% from about 0.37 on). Some of the results follow.

target: T1, Upc2 (UniProt Q12151); assay: PBM E-score (8-mer binding enrichment) (E-score (-0.5 to 0.5)); higher = stronger / more preferred TF binding; most listed sequences are background and not binding sites; conditions: protein concentration: 200 nM; construct: GST-full length
T1 sequence: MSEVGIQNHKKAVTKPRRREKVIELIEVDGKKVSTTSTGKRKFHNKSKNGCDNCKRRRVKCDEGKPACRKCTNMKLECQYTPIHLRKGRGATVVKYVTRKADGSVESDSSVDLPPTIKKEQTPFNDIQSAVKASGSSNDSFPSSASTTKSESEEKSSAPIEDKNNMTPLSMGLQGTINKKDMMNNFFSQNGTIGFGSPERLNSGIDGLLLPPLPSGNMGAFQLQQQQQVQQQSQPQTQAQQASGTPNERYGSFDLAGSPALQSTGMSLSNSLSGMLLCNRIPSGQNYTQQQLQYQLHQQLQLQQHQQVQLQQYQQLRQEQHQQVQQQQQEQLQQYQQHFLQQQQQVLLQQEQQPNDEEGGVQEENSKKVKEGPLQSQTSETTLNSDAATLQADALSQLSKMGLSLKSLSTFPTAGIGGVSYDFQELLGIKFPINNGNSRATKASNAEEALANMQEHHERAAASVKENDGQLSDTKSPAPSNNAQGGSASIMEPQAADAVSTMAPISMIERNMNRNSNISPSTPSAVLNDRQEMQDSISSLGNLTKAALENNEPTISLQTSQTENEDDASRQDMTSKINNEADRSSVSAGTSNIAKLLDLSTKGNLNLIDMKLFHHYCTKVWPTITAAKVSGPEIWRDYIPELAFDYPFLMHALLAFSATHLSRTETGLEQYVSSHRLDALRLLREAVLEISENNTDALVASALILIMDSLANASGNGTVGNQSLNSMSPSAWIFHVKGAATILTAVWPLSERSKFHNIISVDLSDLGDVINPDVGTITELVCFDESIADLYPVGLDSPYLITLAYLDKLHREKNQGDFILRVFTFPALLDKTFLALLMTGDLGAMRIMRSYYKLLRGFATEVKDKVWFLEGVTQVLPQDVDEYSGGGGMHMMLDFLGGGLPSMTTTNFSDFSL
Method in brief: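 Masliner-normalised scans of fluorescent anti-GST signal were the basis for scoring. That signal came from GST-tagged yeast transcription factors applied at about 100-200 nM to double-stranded universal all-10-mer Agilent arrays on fresh or once-stripped slides. Each ungapped eight-base word, pooled with its reverse complement, received an E-score from the Universal PBM Analysis Suite.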

How did the “PBM E-score” value turn out when CCGGGCCC was run?
The value was -0.113.

How did the “PBM E-score” value turn out when AGTACCAA was run?
Its value is -0.0772.

With AGCACGTC as the sequence, how does the “PBM E-score” value read?
The value was 0.00589.

For ATACACAC, which “PBM E-score” value is on record?
The value was 0.0394.

For AGTCGTGG, which “PBM E-score” value is on record?
Its value is -0.163.

For GAACAAAC, which “PBM E-score” value is on record?
Its value is 0.133.

Which “PBM E-score” value does the source give for AACATCAC here?
Its value is -0.137.

For GGAATCGA, which “PBM E-score” value is on record?
Its value is -0.225.

With GTATCACA as the sequence, how does the “PBM E-score” value read?
Its value is 0.199.

Which “PBM E-score” value does the source give for TTACAGAA here?
Its value is -0.0738.

How did the “PBM E-score” value turn out when CTGTTTGC was run?
The value was 0.132.

Which “PBM E-score” value does the source give for CTACATGA here?
Its value is -0.185.

CGATTGAA was tested. Which “PBM E-score” value did it give?
Its value is 0.0171.

AGGCCACG was tested. Which “PBM E-score” value did it give?
The value was -0.0254.

TAGCGCGA was tested. Which “PBM E-score” value did it give?
The value was 0.0682.

How did the “PBM E-score” value turn out when CGATAGTA was run?
Its value is 0.00399.

For ACGGGAAC, which “PBM E-score” value is on record?
The value was 0.262.

For AGAAGGAA, which “PBM E-score” value is on record?
The value was -0.071.

For AGCGTTAA, which “PBM E-score” value is on record?
Its value is 0.153.

How did the “PBM E-score” value turn out when ACGTGTTA was run?
The value was 0.137.

For AGATAGCA, which “PBM E-score” value is on record?
Its value is -0.264.

How did the “PBM E-score” value turn out when CTAGGCGA was run?
The value was -0.0759.

For GACTTTAC, which “PBM E-score” value is on record?
Its value is 0.206.

For ATTGTTCA, which “PBM E-score” value is on record?
Its value is -0.0472.

Which “PBM E-score” value does the source give for ACTAAGCA here?
Its value is -0.113.

With CCTGCTGC as the sequence, how does the “PBM E-score” value read?
Its value is -0.266.

How did the “PBM E-score” value turn out when GAAGTGTC was run?
The value was -0.018.

How did the “PBM E-score” value turn out when ACTGAGTG was run?
The value was -0.034.

Which “PBM E-score” value does the source give for AGGTTTCA here?
The value was -0.202.

With TACTATCA as the sequence, how does the “PBM E-score” value read?
The value was -0.0341.

How did the “PBM E-score” value turn out when ACCCGCGT was run?
Its value is 0.137.

With GTTTCGCA as the sequence, how does the “PBM E-score” value read?
The value was 0.157.

For CATATACC, which “PBM E-score” value is on record?
The value was -0.0116.

With GGGGCAGA as the sequence, how does the “PBM E-score” value read?
The value was -0.11.

How did the “PBM E-score” value turn out when ATCAGAGA was run?
Its value is -0.167.

Which “PBM E-score” value does the source give for CATTCTAA here?
Its value is -0.0331.

For AATCACTC, which “PBM E-score” value is on record?
Its value is -0.0563.

How did the “PBM E-score” value turn out when ACGCACCA was run?
The value was -0.00555.

With CGCTCGCA as the sequence, how does the “PBM E-score” value read?
The value was 0.26.

How did the “PBM E-score” value turn out when AAAACAGA was run?
The value was -0.0135.

ACTCTGTC was tested. Which “PBM E-score” value did it give?
Its value is -0.0631.

Which “PBM E-score” value does the source give for GCCACGAA here?
The value was -0.16.

For ATACTTTC, which “PBM E-score” value is on record?
The value was -0.0413.

With CTTGATAA as the sequence, how does the “PBM E-score” value read?
Its value is -0.0756.

Which “PBM E-score” value does the source give for GTCAGCAC here?
Its value is -0.108.

Which “PBM E-score” value does the source give for TAATCCAA here?
Its value is -0.0801.

CCCCAAAC was tested. Which “PBM E-score” value did it give?
The value was 0.114.

How did the “PBM E-score” value turn out when ACTCGAAG was run?
Its value is -0.258.

How did the “PBM E-score” value turn out when CCCTCTCA was run?
Its value is -0.355.

How did the “PBM E-score” value turn out when CCCGAGTA was run?
Its value is -0.0661.

Which “PBM E-score” value does the source give for ACCCCCAT here?
The value was -0.139.

How did the “PBM E-score” value turn out when ATATGTCC was run?
The value was -0.00922.

For CTTCCTAA, which “PBM E-score” value is on record?
The value was -0.0703.

CCGCACTA was tested. Which “PBM E-score” value did it give?
The value was -0.0176.

Which “PBM E-score” value does the source give for CGTGGGAG here?
Its value is -0.087.

Which “PBM E-score” value does the source give for CCGAACCC here?
The value was -0.0569.

Which “PBM E-score” value does the source give for TATACAAA here?
The value was 0.143.

Which “PBM E-score” value does the source give for GTCGACAA here?
Its value is -0.111.

CCAATGAG was tested. Which “PBM E-score” value did it give?
Its value is -0.14.

AGCTGTCG was tested. Which “PBM E-score” value did it give?
Its value is 0.22.

Which “PBM E-score” value does the source give for ACAAGTTC here?
Its value is 0.00422.

ACCGAGAG was tested. Which “PBM E-score” value did it give?
Its value is 0.142.

Which “PBM E-score” value does the source give for AACGGACC here?
Its value is 0.254.

For CCGAAGAG, which “PBM E-score” value is on record?
The value was 0.09.

GGGCGTGA was tested. Which “PBM E-score” value did it give?
The value was -0.0657.

For GCCGCTTA, which “PBM E-score” value is on record?
Its value is 0.161.

How did the “PBM E-score” value turn out when AGCCAGAT was run?
The value was -0.175.

Which “PBM E-score” value does the source give for GGAACTAA here?
Its value is 0.146.

AATTACGC was tested. Which “PBM E-score” value did it give?
The value was -0.00238.

Which “PBM E-score” value does the source give for CTGACGGC here?
Its value is -0.214.

Which “PBM E-score” value does the source give for AGGCAAAA here?
Its value is -0.178.

How did the “PBM E-score” value turn out when ATCACAGA was run?
Its value is -0.155.

Which “PBM E-score” value does the source give for TCACGTCA here?
The value was -0.0623.

For TTTGCAAA, which “PBM E-score” value is on record?
The value was 0.11.

Which “PBM E-score” value does the source give for GTCTAGCA here?
The value was -0.148.

With AGTGGGGC as the sequence, how does the “PBM E-score” value read?
The value was -0.283.

How did the “PBM E-score” value turn out when GAAGTGCA was run?
The value was -0.153.

For AAGATAAT, which “PBM E-score” value is on record?
The value was 0.0263.

With GCGGTCAA as the sequence, how does the “PBM E-score” value read?
The value was -0.0468.

Which “PBM E-score” value does the source give for CCGCGGTC here?
The value was -0.0616.

Which “PBM E-score” value does the source give for GCCCTAGC here?
The value was -0.328.

With CATATTTA as the sequence, how does the “PBM E-score” value read?
The value was 0.0403.

For TAAAGTGA, which “PBM E-score” value is on record?
Its value is 0.0674.

How did the “PBM E-score” value turn out when ACGGTAAA was run?
The value was 0.207.

How did the “PBM E-score” value turn out when ACTCCAAG was run?
Its value is -0.152.

How did the “PBM E-score” value turn out when ACCCTTGA was run?
Its value is -0.179.
